# Measured values as given in article PMC6212790.
# This is one part of the list. At the low end of the ranking the order means little.
# Biological target: T1, GST-Rok (full length) (UniProt O34857)
# T1 sequence: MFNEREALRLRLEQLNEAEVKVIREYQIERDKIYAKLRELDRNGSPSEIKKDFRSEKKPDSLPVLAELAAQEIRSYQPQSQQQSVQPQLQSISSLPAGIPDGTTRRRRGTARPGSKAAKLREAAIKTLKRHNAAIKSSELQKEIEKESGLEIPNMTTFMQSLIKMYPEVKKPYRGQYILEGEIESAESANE
# Assay: protein binding microarray;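 also: rank score from −0.5 (least bound) to 0.5 (best bound)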
# Conditions: Rok is a gene silencer of Bacillus subtilis; high values mean tight binding; most listed sequences are background and not binding sites; double strand, one strand shown
row,Sequence,binding signal
1,CACGCCTG,-0.118 E-score
2,AATCTCAT,0.185 E-score
3,GACTACCA,0.095 E-score
4,CTGGGTCC,-0.329 E-score
5,CTCTCCCC,-0.29 E-score
6,CCCCGTGC,-0.3 E-score
7,ACCTCGTA,0.12 E-score
8,AGGTCTAT,0.0932 E-score
9,GAAATTAC,0.286 E-score
10,AAACTTCA,0.104 E-score
11,TCCCGGGA,-0.39 E-score
12,CGTAAACG,-0.189 E-score
13,CAGGATAA,0.0242 E-score
14,CCGGAGCC,-0.308 E-score
15,CCCCTGGC,-0.412 E-score
16,CTTGCAGA,-0.149 E-score
17,ATAGGTCA,0.156 E-score
18,ACTTTCTG,0.175 E-score
19,ATGAGTCG,0.0621 E-score
20,AGTAGGTC,0.069 E-score
21,GCCACTTA,-0.161 E-score
22,GAGAAAGA,-0.122 E-score
23,CAGACTAG,0.113 E-score
24,ATAGCATA,0.308 E-score
25,CGACAGAG,-0.0104 E-score

row,Sequence,binding signal
1,TCGGCTCA,-0.225 E-score
2,CCGCAGCC,-0.302 E-score
3,ATTGAACA,0.191 E-score
4,ATACAAAT,0.32 E-score
5,GGGCAATA,-0.0992 E-score
6,CGGGCAAA,-0.106 E-score
7,CGATGTGC,-0.0809 E-score
8,GCTTGGGA,-0.226 E-score
9,CAGGCTAG,-0.159 E-score
10,AAGGTGAG,-0.223 E-score
11,AATTCCGA,0.185 E-score
12,AACTTATT,0.0475 E-score
13,CCCAGTGA,-0.232 E-score
14,AACTCGGT,0.156 E-score
15,AAGATACG,0.164 E-score
16,CGTCGGTA,-0.0839 E-score
17,AGTAAATG,0.19 E-score
18,AAGGTCGC,-0.255 E-score
19,GGCAACCA,-0.0766 E-score
20,GGAAGTTA,0.0847 E-score
21,AGATCCAA,0.0267 E-score
22,ATCGGCTC,-0.206 E-score
23,TAGAGCAA,0.0133 E-score
24,AGAATTTC,0.301 E-score
25,GAAGGGGC,-0.342 E-score

row,Sequence,binding signal
1,GTTTATGA,0.144 E-score
2,AAAACTTT,0.0531 E-score
3,AAAATTAT,0.215 E-score
4,AGGCTCCA,-0.278 E-score
5,AAGATAAA,0.251 E-score
6,AATAAAGG,0.0251 E-score
7,GGTTGTGA,-0.103 E-score
8,CTAATTCA,0.215 E-score
9,CCTGCGAG,-0.212 E-score
10,ACCAAGAT,0.101 E-score
11,GGCATTCA,-0.109 E-score
12,CAAATCCC,-0.231 E-score
13,CAGTTCCA,-0.114 E-score
14,TAGAGATA,0.126 E-score
15,CCACTTGC,-0.132 E-score
16,AACCAGAC,-0.302 E-score
17,ACCTGGCG,-0.215 E-score
18,CACCAGGA,-0.158 E-score
19,GAGGCCCC,-0.357 E-score
20,CTATTAAC,0.233 E-score
21,AGCGTAGA,0.167 E-score
22,ATGTGGGA,0.0228 E-score
23,AGTACGAA,0.249 E-score
24,AACCATAA,0.0915 E-score
25,CCCCCGTC,-0.291 E-score

row,Sequence,binding signal
1,CCGTAGCC,-0.21 E-score
2,CTAAATAG,0.172 E-score
3,ATCTAGCG,0.155 E-score
4,TCCTTAAA,-0.0816 E-score
5,TGCAGACA,-0.0603 E-score
6,AAGTTCCC,-0.156 E-score
7,GCTATAAA,0.28 E-score
8,CCTAAGTC,-0.0792 E-score
9,CAACAGTC,-0.08 E-score
10,GTGCGATA,0.0114 E-score
11,CCTACGGA,-0.227 E-score
12,CTCGGTTA,-0.0984 E-score
13,TAATTCCA,0.213 E-score
14,AGGGCCCA,-0.398 E-score
15,AGCTCTCC,-0.249 E-score
16,TGCTAAAA,0.186 E-score
17,GCAAATCC,-0.0298 E-score
18,CATGTCCA,0.0915 E-score
19,AATTCCAA,0.144 E-score
20,AGGAATTG,0.172 E-score
21,AGGGACAC,-0.307 E-score
22,AGATACAA,0.259 E-score
23,ATGTAGGA,0.117 E-score
24,AACGCCTT,-0.0654 E-score
25,ATTCTAGA,0.309 E-score

row,Sequence,binding signal
1,AAAGTTCG,0.224 E-score
2,CTTACAGC,0.00242 E-score
3,AATGCGAT,0.104 E-score
4,ACTACTAC,0.4 E-score
5,GTACTGGA,0.206 E-score
6,CAGACTGG,-0.0444 E-score
7,AAACCATA,0.166 E-score
8,CATACTCC,-0.0183 E-score
9,GCTCCCCC,-0.494 E-score
10,CTCGGGAC,-0.164 E-score
11,AAGTACAA,0.276 E-score
12,AATGTGCG,0.0329 E-score
13,CTTCCTTC,-0.205 E-score
14,AGCCACGA,0.0501 E-score
15,TTAGGCAA,-0.017 E-score
16,TAACTTAA,0.205 E-score
17,GGCAATTA,0.168 E-score
18,CACAGAGG,-0.119 E-score
19,CAGCTTTA,0.119 E-score
20,TGTTCCAA,-0.165 E-score
21,CGTAAAGA,-0.0014 E-score
22,CGCCTTTA,-0.317 E-score
23,AACTGTCG,0.0211 E-score
24,AAATTGGT,0.167 E-score
25,GCTCACCC,-0.372 E-score

row,Sequence,binding signal
1,CATTGACA,0.0572 E-score
2,ATTAAGCA,0.0409 E-score
3,CTACGGCA,0.0888 E-score
4,CATGAAGA,-0.0315 E-score
5,ACGTGCTG,0.0174 E-score
6,TACGAGCA,0.0667 E-score
7,ACGTTCAG,-0.159 E-score
8,AAGCCCCA,-0.376 E-score
9,GACCGCTA,0.0771 E-score
10,AGGGCCGA,-0.309 E-score
11,AATTTGCA,0.0774 E-score
12,ACGCACTG,0.00561 E-score
13,CCAGATAG,0.188 E-score
14,GGCTCCAC,-0.258 E-score
15,CCGATGAA,-0.0937 E-score
16,GGCTAGCC,-0.21 E-score
17,AAACAACA,0.0398 E-score
18,CGTAGCTC,0.0159 E-score
19,CGCAAAAA,0.0475 E-score
20,TAGGCAAA,0.0124 E-score
21,AGTCTATC,0.0612 E-score
22,AGCTAGCT,0.0639 E-score
23,CCTGGGCC,-0.173 E-score
24,GACAGGAC,-0.193 E-score
25,ATTAGAAA,0.233 E-score

row,Sequence,binding signal
1,CAAAAACC,-0.0284 E-score
2,GATCAGAC,-0.039 E-score
3,CGCGAAAG,-0.235 E-score
4,CCCGGTAA,0.0826 E-score
5,CGTAATCC,-0.0881 E-score
6,GGCATGCA,-0.174 E-score
7,AAAGACTT,-0.0323 E-score
8,ATTATCCG,-0.0462 E-score
9,AAAAGGTA,0.246 E-score
10,ACTGGGAG,-0.013 E-score
11,ATTGCAAT,0.256 E-score
12,AAAAAGAA,0.0931 E-score
13,ACTAACTC,0.12 E-score
14,GTGCGCTA,-0.149 E-score
15,CAATGACC,-0.193 E-score
16,ATAAACCC,-0.102 E-score
17,ATCCCTGA,-0.0995 E-score
18,AGATTTCC,0.135 E-score
19,GCCCGTGA,-0.329 E-score
20,AATCTCAG,-0.0198 E-score
21,GAATAGCA,0.11 E-score
22,ATCGGGTA,0.101 E-score
